Measured values taken from PubChem BioAssay (NCI).
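Cultured in 96-well plates, cells were exposed to test compound for 48 hours across five concentrations. The concentration for 50% growth inhibition is given as GI50.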 A number of entries come with more than one value. They are shown here; other results are not. An entry can have further records. Records of one sample usually come from different ranges of test concentrations, which the source does not state; a value can be the end of its range.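 TGI: total growth inhibition.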

Columns and labels:
Assay in all cases: NCI anticancer screen, dose series, 48 h
HCC-2998 colon = test system: HCC-2998 colon
HCT-116 colon = test system: HCT-116 colon
HT29 colon = test system: HT29 colon
KM12 colon = test system: KM12 colon
LOX IMVI melanoma = test system: LOX IMVI melanoma
NCI-H23 lung = test system: NCI-H23 lung
NCI/ADR-RES ovarian = test system: NCI/ADR-RES ovarian
OVCAR-8 ovarian = test system: OVCAR-8 ovarian
SF-268 CNS = test system: SF-268 CNS
CAKI-1 renal = test system: CAKI-1 renal
CCRF-CEM leukemia = test system: CCRF-CEM leukemia
COLO 205 colon = test system: COLO 205 colon
KM20L2 colon = test system: KM20L2 colon
LXFL 529 NSCLC = test system: LXFL 529 NSCLC
NCI-H460 lung = test system: NCI-H460 lung
NCI-H522 lung = test system: NCI-H522 lung
OVCAR-5 ovarian = test system: OVCAR-5 ovarian
RXF 393 renal = test system: RXF 393 renal
SNB-75 CNS = test system: SNB-75 CNS
SR leukemia = test system: SR leukemia
SW-620 colon = test system: SW-620 colon

With `CCOC(=O)Oc1cc2c(c(OC)c1OC)-c1ccc(SC)c(=O)cc1C(NC(=O)C(F)(F)F)CC2` (centres undefined) the TGI (HCC-2998 colon) was 2 µM and 48.2 nM, the TGI (HCT-116 colon) was 7.1 µM and 11.1 nM and the TGI (HT29 colon) was 5.76 nM and 13.4 µM. The TGI (KM12 colon) was 438 nM and 19.6 µM, the TGI (LOX IMVI melanoma) was 1.54 µM and 18.9 µM and the TGI (NCI-H23 lung) was 3.68 nM and > 100 µM. The TGI (NCI/ADR-RES ovarian) was 32.7 nM and 1.32 µM, the TGI (OVCAR-8 ovarian) was 118 nM and > 100 µM and the TGI (SF-268 CNS) was 6.72 µM and > 100 µM.
`CCOC(=O)C(Cc1c[nH]c2ccc(N(CCCl)CCCl)cc12)(NC(C)=O)C(=O)OCC` was tested, and the GI50 (CAKI-1 renal) was 7.02 µM and 217 nM and the TGI (CAKI-1 renal) was 41.3 µM and 705 nM.
`CO/C1=C\C(C)=C\C(C)C(O)C(C)C/C(C)=C/C=C/C(OC)C(C(C)C(O)C(C)C2(O)CC(O)C(C)C(C(C)C)O2)OC1=O` (centres undefined) was tested, and the TGI (CCRF-CEM leukemia) was 64.7 nM and 16.8 µM, the TGI (COLO 205 colon) was 52.7 nM and 11.5 µM and the TGI (HCT-116 colon) was 5.8 nM and 13 µM. For the same compound, the TGI (HT29 colon) was 42.1 nM and 1.49 µM, the TGI (KM20L2 colon) was 53.8 nM and 4.15 µM and the TGI (LXFL 529 NSCLC) was 6.45 nM and 12.1 µM. The TGI (NCI-H460 lung) was 22.9 nM and 14.4 µM, the TGI (NCI-H522 lung) was 24.3 nM and 6.69 µM and the TGI (OVCAR-5 ovarian) was 25.4 nM and 20.2 µM. The TGI (RXF 393 renal) was 82.8 nM and 26.3 µM, the TGI (SNB-75 CNS) was 64.6 nM and 15 µM and the TGI (SR leukemia) was 41.4 nM and 15.1 µM. For the same compound, the TGI (SW-620 colon) was 41.3 nM and 15.5 µM.
